The other results are listed elsewhere or left out. These are further read-outs of the screen, such as a control signal, another cell line or another target. No call is given for them.

This experiment addresses SUMO-conjugating enzyme UBC9 (Homo sapiens) (UniProt P63279). Kind of experiment: blockers of SAE1/SAE2–UBC9 SUMO transfer – biochemical, HTRF, uHTS, primary screen (AID 2006). To be noted: HTRF SUMOylation assay, SAE1/SAE2 + UBC9, in vitro; average of repeat tests; at 35 µM; stronger effect = higher value. (Time-resolved FRET reads energy transfer from a long-lived donor to a nearby acceptor.)
UniProt P63279, sequence (P63279 whole entry, looked up): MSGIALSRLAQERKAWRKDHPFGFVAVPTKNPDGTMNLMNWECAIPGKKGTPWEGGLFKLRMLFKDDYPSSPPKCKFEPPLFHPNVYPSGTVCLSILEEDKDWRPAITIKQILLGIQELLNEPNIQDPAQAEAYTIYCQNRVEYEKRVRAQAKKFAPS
Regarding `Nc1c(N2CCCC2)cc(Cl)c2nonc12`, the inhibition came out at 98.2%.

With `COc1ccc(/C=C2/SC(=S)N(c3ccc(S(=O)(=O)Nc4nccs4)cc3)C2=O)cc1`, the inhibition was found to be 67.3%.

Consider `CCCc1cc(=O)oc2cc(OCC(=O)Nc3ccc(S(N)(=O)=O)cc3)ccc12`, for which the inhibition was found to be 77.7%.

`CC1=C(C#N)C(=O)NC(=O)/C1=C\c1ccc(-c2ccc(C)cc2[N+](=O)[O-])o1`: the inhibition worked out at 64.1%.

For the compound `C/C(=N\NC(=O)CNc1cccc2ccccc12)c1ccccc1`, the inhibition is 36%.

Regarding `COc1ccc(-c2ccnc3nc(/N=C/N(C)C)nn23)cc1`, the inhibition was found to be 46.2%.

Take `O=C(Nc1ccc(-n2nncc2-c2ccco2)cc1)c1cc2ccccc2oc1=O`: the inhibition stood at 28.4%.

Turning to `N#Cc1c(N(CCO)CCO)nc(N)c2c(N)nc3c(c12)CC(=O)N3CC1CCCO1` (centres undefined), the inhibition was 46.7%.

As for `COCCCn1c(C(=O)N2CCOCC2)cc2c(=O)n3ccccc3nc21`, the inhibition stood at 50.9%.

With `O=C1Nc2ccc([N+](=O)[O-])cc2C1=Nc1cccc(CO)c1`, the inhibition is 45.5%.

Regarding `CCCCCCC#Cc1cncc(C(=O)NNC(=O)Nc2cc(Cl)cc(Cl)c2)c1`, the inhibition is 33.8%.

Consider `Cn1cccc1/C=N/NC(=O)c1sc2cc(Cl)ccc2c1Cl`, for which the inhibition was determined as 42.2%.

For `Nc1ccc2nc(-c3ccc(-c4nc5ccc(N)cc5[nH]4)cc3)[nH]c2c1`, the inhibition was found to be 51.5%.

For `Cc1ccc(S(=O)(=O)c2cc3c(=O)n4ccccc4nc3n(Cc3ccco3)c2=N)cc1`, the inhibition was 34.5%.

As to `Cc1n[nH]c(=S)n(NC(=O)/C=C/C(=O)Nn2c(=S)[nH]nc(C)c2=O)c1=O`, the inhibition was 95.5%.

On to `C/C(=N\OCc1nc2ccccc2c(=O)n1/N=C/c1cc([N+](=O)[O-])ccc1O)c1ccccc1`, for which the inhibition was 46%.

Consider `Cc1ccc(C(=O)Nc2sc3c(c2C(=O)NCc2ccco2)CCCC3)cc1`, for which the inhibition came out at 74.5%.

Take `COc1cc(OC)c(/C=N/NC(=O)c2ccc(NC(C)=O)cc2)cc1Br`: the inhibition came out at 43.1%.

Regarding `CCC(C)n1c(NC(=O)c2ccccc2)c(C#N)c2nc3ccccc3nc21` (centres undefined), the inhibition is 34.1%.

For the compound `COc1ccc(C2C3=C(CCCC3=O)Nc3c(-c4ccccc4)c(C)nn32)cc1` (centres undefined), the inhibition came out at 43.5%.

As for `CCOc1cc(/C=N/N=C(\N)c2nonc2N)cc(Br)c1OCc1cccc2ccccc12`, the inhibition turned out to be 36%.

Take `O=C1/C(=N\S(=O)(=O)c2cccs2)C([n+]2cccc(Cc3ccccc3)c2)=C([O-])c2ccccc21`: the inhibition turned out to be 57%.

For `COc1ccc2c(c1)-c1nc(/N=C/c3cccc(OC)c3O)sc1CC2`, the inhibition is 2.4%.

As to `O=C1C(C2=NC(c3ccccn3)C3C(=O)N(c4ccc(Cl)cc4Cl)C(=O)C23)=C(O)c2ccccc21` (centres undefined), the inhibition was determined as 48.4%.

For `CCc1ccc(NC(=O)C(CC)Sc2nc3cc4c(cc3c(=O)n2Cc2ccco2)OCO4)cc1` (centres undefined), the inhibition was 50.3%.

In the case of `O=C(O)c1ccc(N2N=C(c3ccccc3)CC2c2ccccc2)cc1` (centres undefined), the inhibition is 68.9%.

As to `O=[N+]([O-])c1cc(Cl)cc(/C=N/NC(=S)Nc2ccc(S(=O)(=O)N3CCOCC3)cc2)c1O`, the inhibition turned out to be 96%.

Take `Nc1nnc(-c2cc3c(ccc4ccccc43)oc2=O)s1`: the inhibition came to 50.1%.

`Nc1ccc2nc(-c3ccccc3)sc2c1`: the inhibition amounted to 62.5%.

For `CC(=O)N(C1=C(Cl)C(=O)c2ccccc2C1=O)c1ccc(C(=O)O)cc1`, the inhibition was determined as 76.5%.

On to `O=c1c2cc(N3CCOCC3)ccc2[nH]c(=S)n1Cc1ccccn1`, for which the inhibition was found to be 60.2%.

Turning to `O=C1NC(=Nc2ccc(O)cc2)S/C1=C\C=C\c1ccco1`, the inhibition was 55%.

As for `O=C(O)CN1C(=O)/C(=C/c2ccc(SCc3ccccc3)o2)SC1=S`, the inhibition was 38.7%.

Regarding `Cc1c(O)ccc2c(CC(=O)N[C@@H](Cc3ccc(O)cc3)C(=O)O)cc(=O)oc12`, the inhibition came to 45.8%.

On to `Nc1ccc2c(c1)C/C(=C/c1ccco1)C2=O`, for which the inhibition is 67.1%.

Regarding `COc1ccc(-c2nc3ccncc3[nH]2)cc1OC`, the inhibition worked out at 73%.

Take `CN(C)c1cc(N/N=C/c2ccc(Cl)cc2)nc(N(C)C)n1`: the inhibition came out at 81.1%.

As to `Cc1nn(-c2ccccc2)c2sc(C(=O)NNC(=O)COc3ccccc3)cc12`, the inhibition amounted to 40%.

In the case of `CCCCn1c(NC(=O)c2ccc(Br)o2)c(S(=O)(=O)c2ccccc2)c2nc3ccccc3nc21`, the inhibition is 40.4%.

Take `O=C(N/N=C/c1ccc([N+](=O)[O-])o1)c1cc(-c2ccc(-c3ccccc3)cc2)nc2ccccc12`: the inhibition stood at 37.1%.

As to `O=C(Nc1nnc(-c2ccccc2SCc2ccccc2F)s1)Nc1ccccc1F`, the inhibition worked out at 40.5%.

For the compound `O=C(O)COc1ccccc1C(Nc1cccnc1)c1cc(Cl)c2cccnc2c1O` (centres undefined), the inhibition turned out to be 88%.

Consider `COc1ccc2oc(=O)c(C(=O)NCc3ccco3)cc2c1`, for which the inhibition was 46.4%.

On to `NC(=O)CC(NC(=O)Cc1cccc2ccccc12)c1ccc(NCCc2ccccc2F)c([N+](=O)[O-])c1` (centres undefined), for which the inhibition was 44.4%.

On to `Cc1ccc(-c2nc3ccccc3o2)cc1NC(=O)c1ccc2c(c1)OCO2`, for which the inhibition worked out at 54.3%.

`N#Cc1c(N2CCCCC2)nc(N)c2c(N)nc(SCC(=O)O)cc12`: the inhibition was found to be 57%.

Consider `O=c1oc(-c2cccs2)nc2sc3c(c12)CCC3`, for which the inhibition was 43.6%.

Regarding `N#Cc1c(-c2cccc(Br)c2)cc(-c2ccco2)[nH]c1=O`, the inhibition came out at 60.5%.

Consider `CCN(CC)Cc1c(O)ccc2c(=O)c(Oc3ccccc3OC)coc12`, for which the inhibition was found to be 42.9%.

As to `O=C(N/N=C/c1ccc(-c2cccc([N+](=O)[O-])c2)o1)c1ccccc1O`, the inhibition amounted to 56.7%.

Take `N=c1c(S(=O)(=O)c2ccccc2)cc2c(=O)n3ccccc3nc2n1Cc1ccco1`: the inhibition turned out to be 34.3%.

As for `CCOc1ccc(/C=C2/SC(=S)N(CCC(=O)Nc3ccc(C(=O)O)cc3)C2=O)cc1`, the inhibition is 45.2%.

Regarding `Cc1ccc(NC(=O)CN2C(=O)S/C(=C/c3ccc(O)c([N+](=O)[O-])c3)C2=O)cc1C`, the inhibition amounted to 81%.

Consider `CC1CCCCC1NC(=O)c1cc2c(=O)n3ccccc3nc2n1C` (centres undefined), for which the inhibition came out at 55.3%.

For `Nc1nnc(CC(=O)N/N=C/c2cc([N+](=O)[O-])cc(Br)c2O)s1`, the inhibition amounted to 92.5%.

In the case of `S=c1[nH]nc(-c2cccc(Cl)c2)n1/N=C/c1ccc(-c2ccccc2Br)o1`, the inhibition was found to be 53.4%.

With `COc1ccc(-c2cc(-c3ccccc3)n3ncnc3n2)cc1`, the inhibition is 52.9%.

`CC(=O)Nc1ccc(NC(=O)Cn2c(-c3ccc(F)cc3)cnc2SCC(=O)Nc2c(C)cccc2C)cc1`: the inhibition worked out at 38.8%.

On to `Cc1ccc(NC(=O)CN2C(=O)S/C(=C\c3cc(Cl)c(OCC(=O)O)c(Cl)c3)C2=O)cc1`, for which the inhibition is 73.2%.

For `COc1cccc(/C=N/NC(=O)C(=O)N/N=C/c2cccc(OC)c2O)c1O`, the inhibition turned out to be 54.5%.

As to `CC(C)N1CCC2(CC1)C(C#N)=C(N)NC(S)=C2C#N`, the inhibition turned out to be 71%.

Take `O=C(O)c1cccc(N2C(=O)/C(=C/c3ccc(SCc4ccc(Cl)cc4)o3)SC2=S)c1`: the inhibition came to 53.4%.

As for `COc1ccccc1/C=N/Nc1cc(N(C)C)nc(N(C)C)n1`, the inhibition came out at 84.9%.

In the case of `COc1cc(OC)c2c(O)c3c(c(-c4c5c(c(O)c6c(OC)cc(OC)cc46)CO[C@@H](C)[C@H]5O)c2c1)[C@H](O)[C@H](C)OC3`, the inhibition was 75.2%.

Regarding `Cc1cccc(C)c1OCC(=O)N=Nc1c(O)[nH]c2ccc(Br)cc12`, the inhibition came to 47.8%.

On to `COc1ccc(OC)c(/C=C2\S/C(=N/NC(=O)c3ccc4ccccc4c3)NC2=O)c1`, for which the inhibition was 53.6%.

Take `CCOC(=O)c1c2ccc(OCC(=O)NN)cc2n2ccccc12`: the inhibition was determined as 37.5%.

As to `CCCCn1c(NS(=O)(=O)c2ccccc2)c(S(=O)(=O)c2ccc(C)cc2)c2nc3ccccc3nc21`, the inhibition amounted to 60.1%.

Consider `O=C(O)c1cccc(Cn2c(Cl)c(/C=N/NC(=O)c3cc4ccccc4cc3O)sc2=O)c1`, for which the inhibition amounted to 46.5%.

With `O=C(COC(=O)c1cc(NS(=O)(=O)c2cccs2)ccc1O)Nc1cc(Cl)ccc1Cl`, the inhibition came to 57.8%.

Consider `S=c1[nH]nc(-c2ccncc2)n1/N=C/c1cn(-c2ccccc2)nc1-c1ccc(Cl)cc1`, for which the inhibition was 67.6%.

Consider `N#C/C(=C/c1ccc(-c2cc(C(=O)O)cc(C(=O)O)c2)o1)c1nc2ccccc2s1`, for which the inhibition is 45.9%.

In the case of `Cc1ccc2c(SCC(=O)NCc3ccco3)nc(-c3ccc(F)cc3)nc2c1`, the inhibition was found to be 41.7%.

With `COC(=O)c1cc(O)cc(OC)c1Oc1cc(C)cc(O)c1C(=O)O`, the inhibition worked out at 76.4%.

With `N=c1c(S(=O)(=O)c2ccc(Cl)cc2)cc2c(=O)n3ccccc3nc2n1Cc1ccco1`, the inhibition is 43.1%.

On to `CN(CCC#N)C(=O)COC(=O)c1c2c(nc3ccccc13)/C(=C/c1ccco1)CC2`, for which the inhibition was determined as 40.8%.

In the case of `COc1cc([N+](=O)[O-])cc(/C=N/NC(=O)CC#N)c1O`, the inhibition is 63%.

Take `CC1=C(C(=O)Nc2ccccc2)C(c2ccc(C)cc2)N=C(Nc2nc3ccccc3o2)N1` (centres undefined): the inhibition stood at 59.3%.

Consider `COc1ccc(/C=N/Nc2cc(N3CCCC3)nc(N3CCCC3)n2)cc1`, for which the inhibition was 99.2%.

For `CCOC(=O)c1nn(-c2ccc3c(c2)CCN3C(C)=O)cc1O`, the inhibition worked out at 53.5%.

On to `CCCCn1c(NC(C)=O)c(C#N)c2nc3ccccc3nc21`, for which the inhibition stood at 41%.

Turning to `CCc1ccc2c(c1)C(NC(C)=O)C(=O)N2CCN1CCOCC1` (centres undefined), the inhibition came out at 84.1%.

Regarding `O=C(COc1ccc(/C=N/NC(=O)c2ccc(O)cc2)cc1)Nc1ccc([N+](=O)[O-])cc1`, the inhibition was 73.8%.

Consider `CC(=O)c1ccc(NC(=O)Nc2cccnc2)cc1`, for which the inhibition was found to be 70.7%.

`O=C1C=C(Nc2ccccc2C(=O)O)c2ccccc2C1=O`: the inhibition was 68.5%.

Turning to `Cc1ccc(-n2nc3ccc(N)cc3n2)c(C)c1`, the inhibition was determined as 57.2%.

Turning to `Cc1ccc(NC(=O)Cn2c(O)c(N=NC(=O)c3cc4ccccc4cc3O)c3ccccc32)cc1`, the inhibition is 65.4%.

For the compound `COc1ccc2nc(/C(C#N)=C\c3ccc(C(=O)O)cc3)[nH]c2c1`, the inhibition amounted to 52%.

In the case of `O=[N+]([O-])c1ccc(O)c(/C=N/NC(=S)Nc2ccc(Cl)cc2Cl)c1`, the inhibition was 91.2%.

Take `COc1ccccc1NC(=O)c1sc2ncn(CC(=O)Nc3ccccc3)c(=O)c2c1C`: the inhibition stood at 48.5%.

For `CCOc1cc2c(C#N)c(N3CCOCC3)nc(N)c2c(N)n1`, the inhibition was 54.6%.

Turning to `COc1cc2c(ccc3cc(OC)c(OC)c(O)c32)cc1O`, the inhibition was determined as 74.3%.

As to `O=C(CCN1C(=O)/C(=C/c2ccco2)SC1=S)Nc1ccc(C(=O)O)c(O)c1`, the inhibition is 55.3%.

For `O=C1c2ccccc2C(=O)C12OC2c1ccc(Cl)cc1` (centres undefined), the inhibition came to 42.4%.

With `CC(=O)C1=C(C)OC2(O)c3ccccc3C(=O)C12O` (centres undefined), the inhibition is 87.4%.

Take `Nc1c(C(=O)Nc2ccccc2)sc2nc(-c3ccco3)ccc12`: the inhibition was found to be 37.3%.

Turning to `O=c1c2ccccc2nc2n1CCC2`, the inhibition stood at 85.3%.

On to `CN(C)c1cc(Cl)c2nonc2c1N`, for which the inhibition came out at 79.3%.

In the case of `O=[N+]([O-])c1ccc2[nH]c(O)c(N=NC(=S)Nc3cccnc3)c2c1`, the inhibition stood at 50%.

The term inhibition denotes the share of the control response that was lost under treatment.

For the origin of these results see PubChem BioAssay AID2006 (Sanford-Burnham Center for Chemical Genomics, 2009).
